Data as given in the supplement of paper PMC4967469.

What was measured:
Test in all cases: Viability of human cancer cell lines after 72 h of drug (GDSC screen)
[1] = compound: Cc1ccc(-n2nc(C(C)(C)C)cc2NC(=O)Nc2ccc(OCCN3CCOCC3)c3ccccc23)cc1 [BIRB 0796]; settings: top dose 10 µM; top dose inferred
Protocol: (§1)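 Human cancer cell lines in 384-well plates, medium with 10% serum, drug for 72 h over a 256-fold dose range (nine 2-fold or five 4-fold steps up to the top dose). Adherent lines were fixed and stained with the nucleic acid dye Syto60, suspension lines read with resazurin; signal relative to control wells, capped at 0 and 100%. One two-parameter sigmoid per drug and line, fitted in a mixed model over all curves with the slope shared within a line.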

[2] = compound: O=C1NC(=O)c2c1c(-c1ccccc1Cl)cc1[nH]c3ccc(O)cc3c21 [Wee1 inhibitor 681640]; settings: top dose 2 µM; top dose inferred
Protocol: as §1

[3] = compound: Cc1cc(N2CCOCC2)cc2[nH]c(-c3c(NC[C@@H](O)c4cccc(Cl)c4)cc[nH]c3=O)nc12 [BMS-536924]; settings: top dose 4 µM; screen: GDSC drug entry 1091; top dose inferred
Protocol: as §1

[4] = compound: NC(=O)c1ccc(N(C(N)=O)c2c(F)cccc2F)nc1-c1ccc(F)cc1F [VX-702]; settings: top dose 2 µM; top dose inferred
Protocol: as §1

[5] = compound: O=C(c1cc(Cc2n[nH]c(=O)c3ccccc23)ccc1F)N1CCN(C(=O)C2CC2)CC1 [Olaparib]
Protocol: as §1

[6] = compound: Cc1cccc(-c2[nH]c(C(C)(C)C)nc2-c2ccc3nccnc3c2)n1 [SB-525334]; settings: top dose 20 µM; top dose inferred
Protocol: as §1

[7] = compound: CC(C)=CC[C@@H](O)C1=CC(=O)c2c(O)ccc(O)c2C1=O [Shikonin]; settings: top dose 16 µM; top dose inferred
Protocol: as §1

[8] = top dose 5 µM, screen: GDSC drug entry 1017, top dose inferred
[9] = top dose 10 µM, screen: GDSC drug entry 1495

Row | Cell Line | AUC [1] | IC50 [1] | AUC [2] | IC50 [2] | AUC [3] | IC50 [3] | AUC [4] | IC50 [4] | AUC [5, 8] | IC50 [5, 8] | AUC [5, 9] | IC50 [5, 9] | AUC [6] | IC50 [6] | AUC [7] | IC50 [7]
1 | MDA-MB-361 (breast, adherent) | 0.954 | > 10 µM | 0.964 | > 2 µM | 0.945 | > 4 µM | 0.984 | > 2 µM | 0.986 | > 5 µM | 0.975 | > 10 µM | 0.942 | > 20 µM | 0.526 | 1.18 µM
2 | MDA-MB-453 (breast, adherent) | 0.969 | > 10 µM | 0.982 | > 2 µM | 0.98 | > 4 µM | 0.984 | > 2 µM | 0.985 | > 5 µM | 0.958 | > 10 µM | 0.883 | > 20 µM | 0.62 | 2.23 µM
3 | MEL-JUSO (melanoma, adherent) | 0.864 | > 10 µM | 0.982 | > 2 µM | 0.825 | 2.78 µM | 0.982 | > 2 µM | 0.964 | > 5 µM | 0.959 | > 10 µM | 0.545 | 1.68 µM | 0.348 | 0.36 µM
4 | MG-63 (osteosarcoma, adherent) | 0.976 | > 10 µM | 0.964 | > 2 µM | 0.848 | 3.71 µM | 0.97 | > 2 µM | 0.95 | > 5 µM | – | – | 0.983 | > 20 µM | 0.267 | 0.192 µM
5 | MS751 (cervix, adherent) | 0.99 | > 10 µM | 0.989 | > 2 µM | 0.939 | > 4 µM | 0.99 | > 2 µM | 0.962 | > 5 µM | 0.93 | > 10 µM | 0.977 | > 20 µM | 0.522 | 1.14 µM
6 | NCI-H358 (lung adenocarcinoma, adherent) | 0.889 | > 10 µM | 0.945 | > 2 µM | 0.848 | 3.48 µM | 0.978 | > 2 µM | 0.984 | > 5 µM | 0.978 | > 10 µM | 0.575 | 2.06 µM | 0.408 | 0.544 µM
7 | NCI-H520 (lung squamous cell carcinoma, adherent) | 0.981 | > 10 µM | 0.987 | > 2 µM | 0.96 | > 4 µM | 0.987 | > 2 µM | 0.987 | > 5 µM | 0.979 | > 10 µM | 0.885 | > 20 µM | 0.506 | 1.04 µM
8 | NCI-H596 (lung adenocarcinoma, adherent) | 0.982 | > 10 µM | 0.982 | > 2 µM | 0.893 | > 4 µM | 0.981 | > 2 µM | 0.981 | > 5 µM | 0.931 | > 10 µM | 0.862 | > 20 µM | 0.457 | 0.74 µM
9 | NCI-H661 (large cell lung carcinoma, adherent) | 0.88 | > 10 µM | 0.905 | > 2 µM | 0.851 | > 4 µM | 0.98 | > 2 µM | 0.98 | > 5 µM | 0.925 | > 10 µM | 0.889 | > 20 µM | 0.701 | 4.17 µM
10 | NCI-H727 (lung carcinoid, adherent) | 0.942 | > 10 µM | 0.94 | > 2 µM | 0.839 | > 4 µM | 0.971 | > 2 µM | 0.96 | > 5 µM | 0.937 | > 10 µM | 0.957 | > 20 µM | 0.428 | 0.559 µM
11 | NCI-H1048 (small cell lung carcinoma, adherent) | 0.984 | > 10 µM | 0.916 | > 2 µM | 0.948 | > 4 µM | 0.99 | > 2 µM | 0.91 | > 5 µM | 0.821 | 5.03 µM | 0.51 | 1.33 µM | 0.716 | 3.78 µM
12 | NCI-H1435 (lung adenocarcinoma, semi-adherent) | 0.992 | > 10 µM | 0.992 | > 2 µM | 0.986 | > 4 µM | 0.961 | > 2 µM | 0.971 | > 5 µM | 0.984 | > 10 µM | 0.981 | > 20 µM | 0.653 | 2.52 µM
13 | NCI-H2009 (lung adenocarcinoma, adherent) | 0.925 | > 10 µM | 0.954 | > 2 µM | 0.912 | > 4 µM | 0.987 | > 2 µM | 0.971 | > 5 µM | 0.939 | > 10 µM | 0.976 | > 20 µM | 0.155 | 0.0799 µM
14 | NCI-H2172 (non-small cell lung carcinoma, adherent) | 0.967 | > 10 µM | 0.979 | > 2 µM | 0.902 | > 4 µM | 0.983 | > 2 µM | 0.979 | > 5 µM | 0.981 | > 10 µM | 0.944 | > 20 µM | 0.935 | > 16 µM
15 | NCI-H2342 (lung adenocarcinoma, adherent) | 0.983 | > 10 µM | 0.986 | > 2 µM | 0.933 | > 4 µM | 0.986 | > 2 µM | 0.986 | > 5 µM | 0.905 | > 10 µM | 0.986 | > 20 µM | 0.237 | 0.158 µM
16 | NCI-H2405 (lung adenocarcinoma, adherent) | 0.96 | > 10 µM | 0.977 | > 2 µM | 0.93 | > 4 µM | 0.985 | > 2 µM | 0.983 | > 5 µM | 0.959 | > 10 µM | 0.944 | > 20 µM | 0.418 | 0.583 µM

The IC50 comes from the fitted curve, where viability falls to half of the control; fits outside the tested doses are given as limits. AUC is the area under the same curve over the 256-fold range up to the top dose, as a fraction; it is 1 without any effect and falls as sensitivity rises. The top dose, if marked as inferred, is not printed in the source and was worked back from the curve model. For some assays here: Drugs with an entry number were screened twice under separate entries, and the two screens often disagree.
